A short description of assay [1]: qHTS drug screen for cell cycle checkpoint inhibitors in PARPi-resistant BRCA-mutant ovarian cancer cell lines. (AID 1963452). The note with it: PEO1/OlaR viability, CellTiter-Glo luminescence, 96 h. The procedure, abridged: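 PEO1, PEO4 and PEO1/OlaR ovarian cancer cells, 600 per well, exposed 96 h at 37C to a dilution series. Viability read by CellTiter-Glo luminescence, normalized to DMSO and empty wells; activity summarized as Z-AUC.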
A general note: Quantitative high-throughput screening tests each substance at several concentrations.

Assay [2] is described as follows: NCATS anti-infectives library activity on the primary C. elegans qHTS viability assay (AID 1745855). The note with it: C. elegans worm area imaging, day 7, measured here: worm number. The procedure, abridged: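 GFP read-out by 488 nm laser cytometry at day 0, 3 and 7, gated on object perimeter, area and peak intensity, scored viability of PE254-GFP-FLuc worms exposed to compound in S medium with bacterial capsules at 21 °C.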

Assay [3] in a line: qHTS for identification of novel therapeutic agents for treatment of microphthalmiaassociated transcription factor (MiT) renal cell carcinoma (RCC) (AID 1963991).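 For z-score: curves scaled with 100% = DMSO viability and 0% = empty wells.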 The note with it: CellTiter-Glo, 48 h; for z-score: stronger effect = lower value. The procedure, abridged: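 UOK109/UOK124/UOK145 (TFE3 fusions, three partners); 500 cells/well; MIPE v4.0, 1912 cpds, 11 conc.; 48 h, 37 C; CellTiter-Glo, 15 min RT; lum. Norm.: DMSO 100%, empty 0%.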

Where [4] appears, read: measured here: PEO1 parental viability.
Where [5] appears, read: TFE3-RCC UOK109 viability, measured here: UOK109 Z-AUC.
The mark [6] stands for this setting: TFE3-RCC viability, measured here: UOK124 Z-AUC.
Where [7] appears, read: TFE3-RCC viability, measured here: UOK124 cell viability.
Where [8] appears, read: TFE3-RCC viability, measured here: UOK145 Z-AUC.
[9] abbreviates: TFE3-RCC viability, measured here: UOK145 cell viability.

This is one part of the list. The main result of the screen is listed elsewhere. These columns were measured beside it and carry no call. For some assays here: Compounds called inactive in the main read-out are mostly missing here. The note in brackets gives the kind of curve behind each potency; many fits are weak.

16 compounds from PubChem BioAssay (NCATS) can be followed below.

One may read the AC50 as the concentration at which the activity in the assay is half-maximal.
Tags give direction and shape of the fitted curve.

Take `O=C(O)CNC(=O)C1C(=O)N(C2CCCCC2)C(=O)N(C2CCCCC2)C1=O`: the AC50 in assay [1] (setting [4]) was 21.9 µM [rising, partial curve, poor fit]; in assay [1] (measured here: PEO4 viability), 4.9 µM [rising, partial curve].

As for `CO/C1=C/C(C)=C\[C@@H](C)[C@@H](O)[C@@H](C)C/C(C)=C\C=C/[C@H](OC)[C@@H]([C@@H](C)[C@@H](O)[C@H](C)[C@@]2(O)C[C@@H](O)[C@H](C)[C@@H](C(C)C)O2)OC1=O`, the AC50 in assay [1] (setting [4]) is 0.0082 µM [falling, full curve]; in assay [1] (measured here: PEO4 viability), 0.0103 µM [falling, full curve].

As to `C[C@@H]1O[C@@H](O[C@@H]2C=C3CC[C@@H]4[C@H](CC[C@]5(C)[C@@H](c6ccc(=O)oc6)CC[C@]45O)[C@@]3(C)CC2)[C@H](O)[C@H](O)[C@H]1O`, the AC50 in assay [1] (setting [4]) was 0.049 µM [falling, full curve]; in assay [1] (measured here: PEO4 viability), 0.0155 µM [falling, full curve].

Turning to `CC(C)C[C@H](CN)CC(=O)O`, in assay [1] (setting [4]), the AC50 is 3.47 µM [rising, partial curve, poor fit].

In the case of `C/C1=C/C[C@@H](/C(C)=C/c2csc(C)n2)OC(=O)C[C@H](O)C(C)(C)C(=O)[C@H](C)[C@@H](O)[C@@H](C)CCC1`, the AC50 was 0.0436 µM [falling, full curve] in assay [1] (setting [4]) and 0.0174 µM [falling, full curve] in assay [1] (measured here: PEO4 viability).

For the compound `C/C(=C\c1csc(C)n1)[C@@H]1C[C@@H]2O[C@@H]2CCC[C@H](C)[C@H](O)[C@@H](C)C(=O)C(C)(C)[C@@H](O)CC(=O)O1`, the AC50 in assay [1] (setting [4]) was 0.0155 µM [falling, full curve]; in assay [1] (measured here: PEO4 viability), 0.011 µM [falling, full curve].

Regarding `NC(=O)[C@@H](CC1CC1)[C@@H](CCC(F)(F)F)C(=O)N[C@H]1N=C(c2ccccc2)c2cccc(F)c2NC1=O`, the AC50 in assay [1] (setting [4]) was 24.5 µM [rising, single point].

In the case of `CC1(C)C(=O)N(c2ccc(C#N)c(C(F)(F)F)c2)C(=S)N1Cc1ccc(-c2cn[nH]n2)cc1`, the AC50 was 17.4 µM [falling, single point] in assay [1] (setting [4]) and 21.9 µM [falling, single point] in assay [1] (measured here: PEO4 viability).

Consider `CCNC(=O)C[C@@H]1N=C(c2ccc(Cl)cc2)c2cc(OC)ccc2-n2c(C)nnc21`, for which the AC50 in assay [2] is 2.3 µM [falling, full curve]; in assay [1] (setting [4]), 6.92 µM [falling, partial curve]; in assay [1] (measured here: PEO4 viability), 1.38 µM [falling, full curve]; in assay [3] (setting [7]) it was 0.743 µM [falling, full curve]; in assay [3] (setting [9]) it was 4.18 µM [falling, partial curve]. Further, the values for the z-score in assay [3] (setting [5]), in assay [3] (setting [6]) and in assay [3] (setting [8]) were -1.19, -0.129 and -0.299, respectively.

Turning to `O=C(CBr)N1CC([N+](=O)[O-])([N+](=O)[O-])C1`, the AC50 in assay [1] (setting [4]) was 0.0071 µM [falling, full curve, poor fit]; in assay [1] (measured here: PEO4 viability), 0.0112 µM [falling, full curve, poor fit].

Regarding `C/C=C(\C)C(=O)N[C@@H](c1ccccc1)[C@@H](O)C(=O)O[C@H]1C[C@@]2(O)[C@@H](OC(=O)c3ccccc3)[C@@H]3[C@]4(OC(C)=O)CO[C@@H]4C[C@H](O)[C@@]3(C)C(=O)[C@H](OC(C)=O)C(=C1C)C2(C)C`, the AC50 in assay [1] (setting [4]) was 0.0138 µM [falling, full curve]; in assay [1] (measured here: PEO4 viability) it was 0.0087 µM [falling, full curve].

For the compound `COc1cc2c(cc1F)C(c1ccccc1Cl)=Nc1c(n[nH]c1C)N2`, the AC50 was 21.9 µM [falling, single point] in assay [1] (setting [4]) and 27.5 µM [falling, single point] in assay [1] (measured here: PEO4 viability).

Consider `O=C(NCCCNc1nc(Nc2ccc(N3CCOCC3)cc2)ncc1C1CC1)C1CCC1`, for which the AC50 in assay [2] is 7.27 µM [falling, partial curve]; in assay [1] (setting [4]) it was 1.1 µM [falling, full curve]; in assay [1] (measured here: PEO4 viability) it was 8.71 µM [falling, partial curve].

For the compound `C=C1C[C@@H]2[C@H](CC[C@]3(C)C(=O)CC[C@@H]23)[C@@]2(C)C=CC(=O)C=C12`, the AC50 in assay [1] (measured here: PEO4 viability) was 24.5 µM [falling, single point].

As to `Cc1c(C(=O)Nc2cccc(C(F)(F)F)c2)cc(-c2ccccc2)n1CCCN1CCOCC1`, the half-maximal activity concentration (AC50) is 17.4 µM [falling, single point] in assay [1] (setting [4]); 17.4 µM [falling, partial curve] in assay [1] (measured here: PEO4 viability); 23.5 µM [falling, partial curve] in assay [3] (setting [7]); 23.5 µM [falling, partial curve] in assay [3] (setting [9]). Moreover, the z-score in assay [3] (setting [5]) was 0.534; in assay [3] (setting [6]) it was -0.104; in assay [3] (setting [8]), 0.239.

For `COc1cc(C(=O)N2CC[C@@H](O)[C@@H](N)C2)cc2nc(-c3cc4ccccc4n3CC3CC3)n(C)c12`, the AC50 was 15.5 µM [falling, partial curve] in assay [1] (setting [4]) and 21.9 µM [falling, partial curve] in assay [1] (measured here: PEO4 viability).
